This note sets out measurements from the RNAGym collection of RNA variant scans (doi:10.7554/elife.90254).

The chains are these.
B1: LINE1-mini (parent)
chain: GGCAGAGCUCAACACAGCGUGGCAAAGUGGCUGUGGCUAGACUGCC

Read counts are not given, so values of variants with three or more changes are uncertain.

Variants of B1 are the subject of the data set. Briefly: self-cleavage, relative activity (ratio to wild type); higher = more cleavage; in vitro, sequencing; the parent is a self-cleaving ribozyme.
Turning to C3A C10U G29U C31A C42A, the self-cleavage amounted to 0.04. With C3A U9G A41G the figure was 0.18.

Regarding C3G A11U C13U G29C U43C, the self-cleavage was determined as 0. The result for C3A C15G A25C G29U C31A reads 0.24.

Regarding C3A C15U C42A, the self-cleavage came out at 0.24. For the variant C3A G22A A24C, the self-cleavage stood at 0.28.

As for C3A G5U U34A G40U, the self-cleavage worked out at 0.08.

As to C3A G7U G22C G40U C46A, the self-cleavage turned out to be 0.05. The result for C3G C10A A12U G40C reads 0.05; that for C3A G17C G19A U20G A25C, 0.36; that for C3A U38C A41C, 0.01. On to C3G C8G G22U A25U, for which the self-cleavage worked out at 1.02. C3G A6G C8A G33U C37U C46U: the self-cleavage amounted to 0.09. The result for C3G C10U C18A A41U reads 0.02; that for C3A U20G G21U, 0.17. With C3A G17U C18U G21C the figure was 0.2; with C3A G29U A41C, 0.08; with C3A U20G G44C, 0.73. The result for C3A G5C U9A C10G A11U G21A reads 0.01; that for C3A G5C G17U, 0.04. C3A G7A A12G C23G: the self-cleavage was found to be 0.24. The result for C3A U9G G29C reads 0.09; that for C3A G7U C8G A25U, 1.12; that for C3A C8A C15G C46A, 0.57. For C3A U20G C46G, the self-cleavage was found to be 0.36. The result for C3A G7U A11C A26U C46U reads 0.01. With C3A G7C A12U U28A G30U G33U C46G the figure was 0.02. With C3G C10A C15A U32A A39C the figure was 0.03.

For C3G A4C C37G, the self-cleavage is 0.24. The result for C3G A12C C46G reads 0.16; that for C3G A14G G21A, 0.47. With C3A C10A G17U G35U the figure was 0.04; with C3G A6G C13U U20G A26C, 0.07. With C3G A11U C45U C46U the figure was 0.01; with C3A G5C C10G G21U, 0.01.

With C3A C13U A26C G40U, the self-cleavage worked out at 0.12.

Turning to C3A G30U U43G C46G, the self-cleavage is 0.55.

Regarding C3G C8U C23G A24U, the self-cleavage stood at 0.35. For the variant C3A U9A G30A, the self-cleavage is 1.54. With C3A G21A C37A U38C the figure was 0.14. The result for C3A G21A C42U reads 2.34; that for C3A G7C A16C, 0.09. The result for C3A G21U G22A C37G C46U reads 0.38; that for C3A G17U G36U A39U, 0.12; that for C3A A16C G30C, 0.02. As for C3A G33A U38C A41G, the self-cleavage amounted to 0.08.

On to C3A U9G G33A, for which the self-cleavage was determined as 0.06. On to C3A C8U G44C, for which the self-cleavage is 0.14. With C3A U28A G33A, the self-cleavage was determined as 0.06. Turning to C3A A16C G17A G33U C42U, the self-cleavage was 0.06.

Take C3A C8G C15A U43C: the self-cleavage is 0.02.

C3A U38G C46A: the self-cleavage was 0.03. The result for C3G A11G U20G G44U reads 0.07; that for C3G A14C G40C C46G, 0.02; that for C3G C8A C10G G19C G33A G35C, 0.01. With C3A C10U U28C G40A the figure was 0.06; with C3G A14G C42A, 0.09; with C3G A14C A25C, 0.09. The result for C3A C13G A25G G36U U43A reads 0.23; that for C3G C8A A12G C15A G33A G35U, 0.13. As to C3G A14G C15A G36A, the self-cleavage stood at 0.19. With C3G A12U A25C the figure was 0.07; with C3A A25C G29A C45A, 0.11. With C3A A16G G21U G30U the figure was 0.03; with C3A C23G C46A, 0.1; with C3A G5C G7U A12C A39C, 0.07. With C3G C10G C18A A25G C45A the figure was 0; with C3G C10G A14U A24C G30A, 0.01; with C3G A11U C13U A14U G17A A26C C31A, 0.02.

Take C3G A11G G27U G33U G35C A39G: the self-cleavage was found to be 0.02. For C3A C13U G17C U20A G30C C31U G36U A39C, the self-cleavage turned out to be 0.05.

Regarding C3A G30U G33C, the self-cleavage was 0.46. The result for C3A A12U C23U G35U reads 0.05. With C3A U9A C10A A14U the figure was 0.08; with C3G A12G C13U C15A C31A, 0.02. With C3A G5C G27A the figure was 0.24; with C3A C18A A41C, 0.11. For the variant C3G A12G C23A C42U, the self-cleavage worked out at 0.22. The result for C3A U32C C42G reads 0.11; that for C3A G36C U38C C45A, 0.07; that for C3A C18G G29U, 0.56. With C3A C10G G29U the figure was 0.08; with C3G A14G G27U G44A, 0.31; with C3A U20G G30C U34A, 0.07. With C3A G7C C18U G33C the figure was 0.06; with C3A C10A G19U U38G, 0.04; with C3A C15A G19U G35C, 0.02.

C3G C10A G44U: the self-cleavage is 0.05.

C3A G19C A24G G36U C37U: the self-cleavage came out at 0.02. Take C3A C15G G27C: the self-cleavage was 0.02.

As to C3A C8U U9C G29U C31A, the self-cleavage turned out to be 0.04.

As to C3G A12C C15G C23U C31A C45U, the self-cleavage was determined as 0.01. The result for C3A U20A U28C reads 0.17; that for C3A C8G U43C, 0. With C3A A41U U43A C45A, the self-cleavage worked out at 0.19.

As for C3A G27A G33U, the self-cleavage came to 0.27. The result for C3G A6G C15U A26U G36A U38G reads 0.23; that for C3G A11G C18U U32G A39U C42G, 0.02; that for C3G C8U C18G C42A, 0.32. The result for C3A G30U G35C U38G reads 0.18; that for C3A C8U U9A C13A C15G G35U G40C, 0.2. With C3A A14G C46U the figure was 0.46; with C3A C8U A16U G21C G27U, 0.6. Turning to C3G A4G C18A G22U, the self-cleavage came out at 0.08. The result for C3A C13G A16U A25C A26C reads 0.06; that for C3G A4C U20G C23A A24C G29A C42U G44U, 0.21. Take C3G A14G U28C U34A G36C G40A C45A: the self-cleavage was 0.14. The result for C3A U9A U20A G21A reads 0.25. C3G A25C G27C G30U G33U: the self-cleavage was 0.06. With C3A G7A C37U, the self-cleavage came to 0.56.

Take C3A G7C G17U G22U A39G: the self-cleavage came to 0.1. For the variant C3A C15A G36C, the self-cleavage came to 0.42. The result for C3A C10U C18G C23G G40C reads 0.02. With C3A C31A C42U the figure was 0.16; with C3A G33C G35U, 0.15; with C3A C13U G17A A26C G36C, 1.44. With C3A G7A C18G A24G G27U C46U the figure was 0.04; with C3A G5A U32A, 0.08; with C3G A4G G30U G35U, 0.06. Consider C3A C18U G35U C37U, for which the self-cleavage was 0.34.

As for C3A G21C C31A, the self-cleavage was found to be 0.12. With C3A A26U U32A G35C A41G the figure was 0.04; with C3A A12U G22U G29C, 0.19. Regarding C3A G33U G40U, the self-cleavage was 0.33.

For the variant C3A A26U C37G C46U, the self-cleavage worked out at 0.24. With C3A G5C U9G the figure was 0.01. The result for C3A C15A G21U A24G C42U reads 0.3; that for C3G A11U C13G G27C U32G, 0.01. Take C3A U20A A26G: the self-cleavage was determined as 0.32. Take C3A C8U U28A C42G C45U: the self-cleavage was 0.08. On to C3A C8A C15A C18G G29A C31A U34A A39G C45G, for which the self-cleavage worked out at 0.15. For the variant C3G C10U G29U U38C C46A, the self-cleavage stood at 0.17.

Turning to C3G C10U C15A C18A U28G, the self-cleavage amounted to 0.03. As for C3A A24U G36U C45A, the self-cleavage was determined as 0.17. With C3A C31U G33C U34A the figure was 0.04; with C3A G7C U20G, 0.05.

For C3A U28C G29A C37G A39C, the self-cleavage is 0.03. As to C3A C15A G36A C37U C42G, the self-cleavage stood at 0.11. The result for C3A G5U A11C A12G A16C reads 0.03.

Consider C3G A12G U20A G36U, for which the self-cleavage is 0.14. C3G A4C C23U G30U C45A: the self-cleavage worked out at 0.01. Take C3A C10G A16G G27U: the self-cleavage is 0.03.

Take C3A G7C C10U G22A C23G G40A U43G: the self-cleavage came to 0.04. The result for C3A A16G A25U G36C C37G reads 0.01. With C3G C10A A11U A24U C31A the figure was 0.02; with C3A C10A C46A, 0.04; with C3A C10A G33C G35C, 0.04. With C3G C8G C13U C15A the figure was 0.09; with C3A G7U C10G C13A G21C G29U G30U C31A A39C, 0.02; with C3A G33U U34A C46U, 0.17.

As to C3G C8A A24U U34C, the self-cleavage is 0.09. The result for C3G C8A C31U reads 0.48. For the variant C3G A6U C18U U32A G33U, the self-cleavage was 0.07. As for C3A U9G A24G, the self-cleavage is 0.05. For the variant C3A G35C G36U C46U, the self-cleavage amounted to 0.45. The result for C3G A4G G19U G22U C23U reads 0.11; that for C3A C18G G30U, 0.49. On to C3G A41U G44A, for which the self-cleavage came to 2.14. With C3A G7U U9G C13A G33U C45G the figure was 0.15.

Take C3G A11G C45A: the self-cleavage came out at 0.03. The result for C3G A14G C23A reads 0.26; that for C3A G27A G36C, 0.69. Consider C3A U32G U43G, for which the self-cleavage is 0.48. As for C3G A14G G40U, the self-cleavage amounted to 0.09. The result for C3G A26U U38C reads 0.06; that for C3G A16C A39U, 0.21.

With C3A C23A G33A, the self-cleavage is 0.06.
